Source: publication PMC10313165, “Imaging single CaMKII holoenzymes at work by high-speed atomic force microscopy” (Science Advances, 2023)

Columns and labels:
[1] = molecular target: T1, rat calmodulin, 6xHis-tagged (Ca^2+-bound in the assays) (rat (Rattus norvegicus), UniProt P0DP29); assay: high-speed atomic force microscopy; 50 nM CaMKII and 800 nM CaM premixed in buffer B with 1 mM CaCl2 and 1 mM ATP, 30 °C, 5 min; imaged in buffer A with 1 mM CaCl2 and 1 mM ATP on pillar[5]arene-modified mica, 24-26 °C; conditions: both partners purified
T1 construct: calmodulin, rat (Rattus norvegicus), synthesized gene (Eurofins) in the pRSET vector; Used at 800 nM with 1 mM CaCl2; also called CaM; Ca^2+/CaM; source: E. coli (DH5α), purified (Ni-NTA column)

[2] = molecular target: the molecule itself; assay: high-speed atomic force microscopy; single holoenzyme particles on mica modified with cationic pillar[5]arene; buffer A (50 mM tris-HCl pH 7.4, 15 mM KCl, 10 mM MgCl2, 10% glycerol) with the additives of each state; 24-26 °C; kinase domains seen around a central hub assembly

Row | Binder | binding result [1] | binding result [2]
1 | rat CaMKIIα T286A holoenzyme (enzyme, CaMKIIα, rat (Rattus norvegicus), […], with T286A; source: HEK293, transfected, purified (Strep-Tactin Sepharose, then NTA column)) not shown | binds | binds
2 | pT286 rat CaMKIIα T305A/T306V holoenzyme (enzyme, phosphothreonine at 286 (pT286), CaMKIIα, rat (Rattus norvegicus), […], with T305A and T306V; also called CaMKIIα_(T305A/T306V) + ATP; source: HEK293, transfected, purified (Strep-Tactin Sepharose, then NTA column); treated with Ca^2+/CaM and 1 mM ATP) not shown | binds | binds
3 | rat CaMKIIα T305A/T306V holoenzyme (not phosphorylated) (enzyme, CaMKIIα, rat (Rattus norvegicus), […], with T305A and T306V; source: HEK293, transfected, purified (Strep-Tactin Sepharose, then NTA column)) not shown | – | binds
